# From PubChem BioAssay (Tox21)
# Several values for one entry are separate records, joined by “and”; a condition that tells them apart may be missing. Equal values may be shown once. The inconclusive results got no clear call from the source; some entries with a clear call stand among them for comparison. For some assays here: A potency beside an inconclusive call is a rough fit, not a confirmed value. Activity calls are given as the source filed them. Unless noted, the call rests on the fitted dose curve; in most records, active means well fitted curve in the direction sought with a large enough effect in the repeat runs; inconclusive means weak or mixed curves; inactive means no such curve, though single readings can be large; an effect the other way counts as inactive or inconclusive.
# Assays:
# [1] = qHTS assay for small molecule agonists of the antioxidant response element (ARE) signaling pathway (AID 743202; active means well fitted activation curve with a large enough effect in the signal ratio in the repeat runs, not every such curve was filed as active; inconclusive means weak or mixed curves, or effect the other way; inactive means no such curve, though single readings can be large or run the other way; the % refers to the signal ratio; further: potency means the concentration at half of the fitted maximal effect); conditions: HepG2 ARE-bla reporter, beta-lactamase FRET, 16 h; activation: at 73.3 µM (top of the series) unless noted
# How it was run: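 After 16 hours of compound treatment at 37 C, HepG2 cells with a stably integrated ARE-driven beta-lactamase reporter were loaded 2 hours at room temperature with LiveBLAzer B/G FRET substrate and fluorescence intensity measured.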
# [2] = qHTS assay for small molecule activators of the heat shock response signaling pathway - cell viability counter screen (AID 743209); conditions: HSE-bla HeLa viability, CellTiter-Glo luminescence, 5 h; activity change, negative = cytotoxicity: at 62.6 µM (top of the series); further: nearly all actives have a fitted effect of over 50% in size; further: potency means the concentration at half of the fitted maximal effect
# How it was run: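 To flag cytotoxic compounds, HSE-bla HeLa cells plated at 1500 cells/well were dosed for 5 h at 37 C, followed by the reporter FRET read and then CellTiter-Glo, with luminescence recorded 30 min after reagent addition.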
# [3] = qHTS assay for small molecule activators of the heat shock response signaling pathway (AID 743210; active means well fitted activation curve with a large enough effect in the signal ratio in the repeat runs, with a control signal flat, not every such curve was filed as active; inconclusive means weak or mixed curves; the % refers to the signal ratio; further: potency means the concentration at half of the fitted maximal effect); conditions: HeLa HSE-bla reporter, beta-lactamase ratio, 5 h; activation: at 62.6 µM (top of the series) unless noted
# How it was run: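 Compound exposure lasted 5 h at 37 C in HeLa cells carrying a heat-shock-element-driven beta-lactamase reporter. Read-out: fluorescence intensity after 2.5 h room-temperature loading with LiveBLAzer B/G FRET substrate.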
# [4] = biological target: Vitamin D3 receptor (Homo sapiens) (UniProt P11473); assay: qHTS assay to identify small molecule agonists of the vitamin D receptor (VDR) signaling pathway (AID 743222; calls by dose curve; further: on the % scale 0 is the no-effect control and ±100 the full control effect); conditions: HEK293T VDR-UAS-bla, beta-lactamase FRET ratio, 16 h; activation: at 63.5 µM (top of the series) unless noted
# How it was run: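 Using LiveBLAzer B/G FRET detection, agonism was scored in VDR-bla cells exposed overnight (16 h, 37C) to DMSO-dissolved compounds; substrate incubation was 2 h at room temperature.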
# [5] = biological target: Vitamin D3 receptor (Homo sapiens) (UniProt P11473); assay: qHTS assay to identify small molecule antagonists of the vitamin D receptor (VDR) signaling pathway (AID 743223; active means well fitted inhibition curve with a large enough effect in the signal ratio in the repeat runs, not every such curve was filed as active; inconclusive means weak or mixed curves, or effect the other way; inactive means no such curve, though single readings can be large or run the other way; the % refers to the signal ratio; further: potency means the concentration at half of the fitted maximal effect); conditions: VDR-UAS-bla HEK293T, beta-lactamase FRET ratio, 16 h; activity change, negative = inhibition: at 61 µM (top of the series) unless noted
# How it was run: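 VDR-bla cells were treated with compound plus 3 nM final 1alpha,25-dihydroxyvitamin D3 for 16 h at 37C. Beta-lactamase reporter read by B/G FRET substrate fluorescence after 2 h at room temperature. qHTS format.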
# [6] = qHTS assay to identify small molecule antagonists of the vitamin D receptor (VDR) signaling pathway - cell viability counter screen (AID 743225); conditions: VDR-bla HEK293T viability, CellTiter-Glo luminescence, 16 h; viability change, negative = cytotoxic: at 61 µM (top of the series) unless noted; further: potency means the concentration at half of the fitted maximal effect; nearly all actives have a fitted effect of over 50% in size
# How it was run: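 VDR-UAS-bla HEK 293T cells were plated and incubated 4 h at 37C, then dosed with compound plus 3 nM (final) 1-alpha,25-dihydroxyvitamin D3 for 16 h. After the 2 h beta-lactamase read, viability in the same wells was read as CellTiter-Glo luminescence after 30 min at room temperature.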
# [7] = biological target: Nuclear receptor ROR-gamma (Homo sapiens) (UniProt P51449); assay: qHTS assay to identify small molecule antagonists of the retinoid-related orphan receptor gamma (ROR-gamma) signaling pathway (AID 1159521; further: nearly all actives have a fitted effect of over 50% in size; further: potency means the concentration at half of the fitted maximal effect)
# How it was run: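 Tet-on ROR-gamma CHO cells with ROR response element-luciferase reporter; compounds added 2 hr before 1 uM doxycycline induction, then 16 hr at 37 C. Antagonism scored as decreased ONE-Glo luminescence.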
# [8] = qHTS assay for small molecule agonists of the antioxidant response element (ARE) signaling pathway - cell viability counter screen (AID 743203; calls by dose curve; further: potency means the concentration at half of the fitted maximal effect; nearly all actives have a fitted effect of over 55% in size); conditions: ARE-bla HepG2 viability, CellTiter-Glo luminescence, 16 h; viability change, negative = cytotoxic: at 73.3 µM (top of the series)
# How it was run: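 Parallel cytotoxicity read-out for the ARE-bla screen: HepG2 reporter cells, 16 hrs with compounds, then CellTiter-Glo luminescence.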
# [9] = qHTS assay to identify small molecule agonists of the peroxisome proliferator-activated receptor delta (PPARd) signaling pathway - cell viability counter screen (AID 743211); conditions: PPARd-bla HEK293H viability, CellTiter-Glo luminescence, 17 h; activity change, negative = cytotoxicity: at 62.6 µM (top of the series); further: potency means the concentration at half of the fitted maximal effect; nearly all actives have a fitted effect of over 55% in size
# How it was run: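 PPARd-bla HEK293H cells (3000/well) were pre-incubated 5 h at 37 C, then exposed to compound for 17 h at 37 C. After 2 h with LiveBLAzer substrate, CellTiter-Glo was added to the same wells; luminescence read after 30 min at room temperature.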
# [10] = qHTS assay to identify small molecule antagonists of the peroxisome proliferator-activated receptor delta (PPARd) signaling pathway - cell viability counter screen (AID 743213); conditions: PPARd-bla HEK293H viability, CellTiter-Glo luminescence, 17 h; viability change, negative = cytotoxic: at 62 µM (top of the series) unless noted; further: nearly all actives have a fitted effect of over 50% in size; further: potency means the concentration at half of the fitted maximal effect
# How it was run: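 Same-well viability: cells pre-incubated 5 h, dosed with compound plus 300 nM L165041, kept 17 h at 37 C, FRET substrate 2 h RT, then CellTiter-Glo 30 min RT and luminescence.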
# [11] = biological target: Peroxisome proliferator-activated receptor delta (Homo sapiens) (UniProt Q03181); assay: qHTS assay to identify small molecule antagonists of the peroxisome proliferator-activated receptor delta (PPARd) signaling pathway (AID 743215; active means well fitted inhibition curve with a large enough effect in the signal ratio in the repeat runs, not every such curve was filed as active; inconclusive means weak or mixed curves, or effect the other way; inactive means no such curve, though single readings can be large or run the other way; the % refers to the signal ratio;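 further: cells stimulated with agonist L165041 at 300 nM final during compound exposure; on the % scale 0 is the no-effect control and ±100 the full control effect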); conditions: HEK293H PPARd-UAS-bla, beta-lactamase FRET ratio, antagonist, 17 h; ratio activity, negative = inhibition: at 62 µM (top of the series) unless noted
# How it was run: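 Screen format: qHTS, antagonist mode. HEK293H PPARd-bla cells received compound and 300 nM L165041 (final), 17 h, 37 C. Beta-lactamase detected via FRET substrate fluorescence, 2 h, room temperature.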
# [12] = qHTS assay to identify small molecule agonists of the farnesoid-X-receptor (FXR) signaling pathway - cell viability counter screen (AID 743218); conditions: FXR-bla HEK293T viability, CellTiter-Glo luminescence, 16 h; viability change, negative = cytotoxic: at 62.6 µM (top of the series) unless noted; further: potency means the concentration at half of the fitted maximal effect; nearly all actives have a fitted effect of over 45% in size
# How it was run: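 Same-well cytotoxicity check on FXR-UAS-bla HEK 293T cells: 5 h attachment, 16 h compound at 37 C, CellTiter-Glo luminescence read at room temperature after 30 min.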
# [13] = biological target: Bile acid receptor (Homo sapiens) (UniProt Q96RI1); assay: qHTS assay to identify small molecule agonists of the farnesoid-X-receptor (FXR) signaling pathway (AID 743220; active means well fitted activation curve with a large enough effect in the signal ratio in the repeat runs, not every such curve was filed as active; inconclusive means weak or mixed curves, or effect the other way; the % refers to the signal ratio; further: potency means the concentration at half of the fitted maximal effect); conditions: HEK293T FXR-UAS-bla, beta-lactamase FRET ratio, 16 h; activation: at 62.6 µM (top of the series)
# How it was run: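 FXR-UAS-bla HEK 293T cells carrying a UAS-driven beta-lactamase reporter were plated for 5 h at 37C/5% CO2, then exposed to DMSO-dissolved Tox21 10K compounds for 16 h at 37C. A LiveBLAzer B/G FRET substrate was loaded for 2 h at room temperature before fluorescence reading.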
# [14] = qHTS assay to identify small molecule agonists of the vitamin D receptor (VDR) signaling pathway - cell viability counter screen (AID 743224); conditions: VDR-bla HEK293T viability, CellTiter-Glo luminescence, 16 h; activity change, negative = cytotoxicity: at 62.6 µM (top of the series); further: nearly all actives have a fitted effect of over 50% in size; further: potency means the concentration at half of the fitted maximal effect
# How it was run: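 Counter screen for cytotoxicity: VDR-bla cells at 2,000 cells/well, 16 h compound exposure, then CellTiter-Glo luminescence after the beta-lactamase measurement.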
# [15] = biological target: Peroxisome proliferator-activated receptor delta (Homo sapiens) (UniProt Q03181); assay: qHTS assay to identify small molecule agonists of the peroxisome proliferator-activated receptor delta (PPARd) signaling pathway (AID 743212; calls by dose curve;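 further: HEK293H cells with PPARd UAS beta-lactamase reporter GeneBLAzer system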; further: potency means the concentration at half of the fitted maximal effect); conditions: HEK293H PPARd-UAS-bla, beta-lactamase FRET ratio, 17 h; activation: at 62.6 µM (top of the series) unless noted
# How it was run: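 Beta-lactamase reporter readout: a ratiometric FRET signal from the LiveBLAzer substrate after 2 h at room temperature. Compound exposure at 37 °C in PPARδ-bla HEK293H cells driven by an upstream activator sequence.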
# [16] = biological target: Bile acid receptor (Homo sapiens) (UniProt Q96RI1); assay: qHTS assay to identify small molecule antagonists of the farnesoid-X-receptor (FXR) signaling pathway (AID 743217; active means well fitted inhibition curve with a large enough effect in the signal ratio in the repeat runs, not every such curve was filed as active; inconclusive means weak or mixed curves, or effect the other way; inactive means no such curve, though single readings can be large or run the other way; the % refers to the signal ratio; further: on the % scale 0 is the no-effect control and ±100 the full control effect); conditions: HEK293T FXR-UAS-bla, beta-lactamase ratio, CDCA-stimulated, 16 h; activity change, negative = inhibition: at 62.6 µM (top of the series) unless noted
# How it was run: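 Quantitative HTS, beta-lactamase reporter format: FXR-UAS-bla HEK 293T cells co-treated 16 h at 37 °C with compounds and 50 uM final chenodeoxycholic acid, then read by B/G FRET fluorescence.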
# [17] = qHTS assay to identify small molecule agonists of the AP-1 signaling pathway (AID 1159526; calls by dose curve; further: on the % scale 0 is the no-effect control and ±100 the full control effect); conditions: ME-180 (cervical carcinoma) AP-1-bla reporter, beta-lactamase FRET ratio, 5 h; activation: at 76.8 µM (top of the series) unless noted
# Tags describe the fitted curve by direction and shape or compound fluorescence and quenching.
# Chain of UniProt Q96RI1 (Q96RI1 whole entry, looked up): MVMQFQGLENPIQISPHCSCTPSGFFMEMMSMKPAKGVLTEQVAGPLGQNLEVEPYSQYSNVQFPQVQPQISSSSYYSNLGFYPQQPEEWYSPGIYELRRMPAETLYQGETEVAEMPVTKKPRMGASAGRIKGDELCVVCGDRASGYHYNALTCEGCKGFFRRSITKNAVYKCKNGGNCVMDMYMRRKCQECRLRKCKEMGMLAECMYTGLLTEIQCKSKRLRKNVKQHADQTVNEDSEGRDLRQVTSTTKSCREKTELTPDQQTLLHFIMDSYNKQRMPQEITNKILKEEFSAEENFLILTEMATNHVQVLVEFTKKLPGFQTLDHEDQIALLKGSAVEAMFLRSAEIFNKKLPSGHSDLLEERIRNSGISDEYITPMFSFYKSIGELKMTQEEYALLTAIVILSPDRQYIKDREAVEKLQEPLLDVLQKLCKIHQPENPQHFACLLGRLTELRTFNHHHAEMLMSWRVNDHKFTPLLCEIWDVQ
# Chain of UniProt Q03181 (Q03181 whole entry, looked up): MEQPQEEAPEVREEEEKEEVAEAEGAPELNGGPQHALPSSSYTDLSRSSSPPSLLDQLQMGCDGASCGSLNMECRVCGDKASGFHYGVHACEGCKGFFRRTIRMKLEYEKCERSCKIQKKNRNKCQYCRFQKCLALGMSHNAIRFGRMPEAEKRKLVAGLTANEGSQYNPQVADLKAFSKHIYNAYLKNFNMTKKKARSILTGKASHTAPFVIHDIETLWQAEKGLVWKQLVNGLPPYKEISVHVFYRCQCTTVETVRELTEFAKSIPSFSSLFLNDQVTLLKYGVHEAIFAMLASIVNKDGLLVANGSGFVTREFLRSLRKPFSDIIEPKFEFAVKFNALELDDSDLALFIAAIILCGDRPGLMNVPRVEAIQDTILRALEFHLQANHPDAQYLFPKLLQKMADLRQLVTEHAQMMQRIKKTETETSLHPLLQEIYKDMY
# Chain of UniProt P11473 (P11473 whole entry, looked up): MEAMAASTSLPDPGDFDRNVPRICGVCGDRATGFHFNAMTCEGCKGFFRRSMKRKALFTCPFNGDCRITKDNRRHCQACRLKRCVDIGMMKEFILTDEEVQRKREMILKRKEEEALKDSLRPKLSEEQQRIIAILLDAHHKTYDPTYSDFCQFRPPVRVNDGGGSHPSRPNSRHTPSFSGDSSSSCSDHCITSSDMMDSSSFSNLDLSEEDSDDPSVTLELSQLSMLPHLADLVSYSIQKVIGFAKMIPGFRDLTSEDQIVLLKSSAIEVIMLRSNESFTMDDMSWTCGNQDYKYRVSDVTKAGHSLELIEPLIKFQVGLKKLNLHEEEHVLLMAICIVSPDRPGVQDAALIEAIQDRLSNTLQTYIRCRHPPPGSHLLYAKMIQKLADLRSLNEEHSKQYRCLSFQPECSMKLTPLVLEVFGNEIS
compound,measurement,setting,value
CCCCCC(=O)OCCc1ccccc1,Potency,[1],"inconclusive: 48.6 µM [falling, partial curve, poor fit]"
same,Potency,[2],inactive
same,Potency,[3],inactive
same,Potency,[4],inactive
same,Potency,[5],inactive
same,Potency,[6],"inconclusive: 1.2 nM [rising, full curve]"
same,Potency,[7],inactive
CCN[C@H]1C[C@H](C)S(=O)(=O)c2sc(S(N)(=O)=O)cc21,Potency,[1],inactive
same,Potency,[7],inactive
CCOc1ccc(NS(=O)(=O)c2ccc(N)cc2)nn1,Potency,[1],inactive
same,Potency,[2],"inconclusive: 0.596 µM [cytotoxic, single point]"
same,Potency,[7],"inconclusive: 11.9 µM [inhibitor, partial curve, poor fit]"
COc1ccnc(CS(=O)c2nc3ccc(OC(F)F)cc3[nH]2)c1OC (stereo not given),Potency,[1],inconclusive: 29.8 µM
same,Potency,[2],inactive
same,Potency,[7],"inconclusive: 0.188 µM [inhibitor, full curve, poor fit]"
COCCCCCCCCOCCC[Si](C)(O[Si](C)(C)C)O[Si](C)(C)C,Potency,[1],"inconclusive: 7.7 µM [falling, partial curve, poor fit]"
same,Potency,[8],"inconclusive: 61.1 µM [cytotoxic, single point]"
same,Potency,[2],active: 38.9 µM
same,Potency,[3],inconclusive: 57.1 µM
same,Potency,[9],"inconclusive: 24.5 µM [cytotoxic, partial curve, poor fit]"
same,Potency,[10],active: 15.5 µM
same,"ratio activity, negative = inhibition",[11],inconclusive: -31.5%
same,Potency,[12],"inconclusive: 61.6 µM [cytotoxic, single point]"
same,activation,[13],inconclusive: 6.22%
same,Potency,[5],inactive
same,Potency,[14],"inconclusive: 3.09 µM [cytotoxic, full curve]"
same,Potency,[6],"inconclusive: 3890 nM [cytotoxic, full curve, poor fit]"
same,Potency,[7],active: 17.2 µM
CCNC(=O)N1CCN(CCCC(c2ccc(F)cc2)c2ccc(F)cc2)CC1,Potency,[1],"inconclusive: 9.44 µM [rising, full curve]"
same,Potency,[3],inactive
same,Potency,[9],"inconclusive: 9.44 µM [cytotoxic, single point]"
same,Potency,[15],inactive
same,"ratio activity, negative = inhibition",[11],inconclusive: 9.65%
same,Potency,[5],inactive
same,Potency,[14],"inconclusive: 33.5 µM [cytotoxic, single point]"
same,Potency,[7],"inconclusive: 6.68 µM [inhibitor, full curve, poor fit]"
CCN(CC)CC(=O)Nc1c(C)cccc1C,Potency,[1],inactive
same,Potency,[2],inactive
same,Potency,[14],inactive
same,Potency,[7],inactive
CCO[C@H](Cc1ccc(OCCc2ccc(OS(C)(=O)=O)cc2)cc1)C(=O)O,Potency,[1],inconclusive: 23.7 µM
same,"activity change, negative = cytotoxicity",[2],inconclusive: 1.95% [cytotoxic]
same,Potency,[15],active: 11.9 µM
same,"activity change, negative = inhibition",[5],inconclusive: 3.78%
same,Potency,[7],"inconclusive: 0.298 µM [inhibitor, single point]"
CC(C#N)(CCC(=O)O)N=NC(C)(C#N)CCC(=O)O (stereo not given),Potency,[1],inactive
same,Potency,[7],inactive
Cc1ccc(C)c([N+](=O)[O-])c1,Potency,[1],"inconclusive: 76.3 µM [rising, partial curve, poor fit]"
same,Potency,[7],inactive
CCCCNc1ccc(C(=O)OCCOCCOCCOCCOCCOCCOCCOCCOCCOC)cc1,Potency,[1],inconclusive: 33.5 µM
same,Potency,[2],inactive
same,Potency,[9],"inconclusive: 11.9 µM [rising, partial curve, poor fit]"
same,Potency,[10],inactive
same,"ratio activity, negative = inhibition",[11],inconclusive: -5.61%
same,Potency,[16],inactive
same,Potency,[7],"inconclusive: 29.8 µM [inhibitor, partial curve]"
CC1=C(C)C(=O)C(CCCCC#CCCCC#CCO)=C(C)C1=O,Potency,[1],active: 23.7 µM
same,"activity change, negative = cytotoxicity",[2],inconclusive: -44.5% [cytotoxic]
same,Potency,[9],"inconclusive: 26.6 µM [cytotoxic, single point]"
same,Potency,[15],"inconclusive: 33.5 µM [rising, single point]"
same,"ratio activity, negative = inhibition",[11],inconclusive: -19.2%
same,activation,[13],inconclusive: 4.2%
same,Potency,[7],active: 29.8 µM
Cc1onc(-c2ccccc2)c1C(=O)Cl,"activity change, negative = inhibition",[5],inconclusive: 0.762%
same,Potency,[7],"inconclusive: 29.8 µM [inhibitor, single point]"
same,Potency,[17],inactive
CCOc1ccccc1N,Potency,[5],inactive
same,Potency,[7],active: 54.1 µM
same,activation,[17],inconclusive: 18%
Cc1cc(O)c2c(c1)C(=O)c1cccc(O)c1C2=O,Potency,[1],active: 10.6 µM
same,Potency,[7],inactive
OCCOCCN1CCN(C2=Nc3ccccc3Sc3ccccc32)CC1,Potency,[1],"inconclusive: 26.6 µM [rising, partial curve]"
same,activation,[1],inconclusive: 13.4%
same,Potency,[9],"inconclusive: 15.1 µM [cytotoxic, partial curve, poor fit]"
same,Potency,[10],"inconclusive: 6.74 µM [cytotoxic, single point]"
same,"viability change, negative = cytotoxic",[10],inconclusive: -0.223% [cytotoxic]
same,Potency,[13],"inconclusive: 26.8 µM [fluorescent, single point]"
same,Potency,[5],"inconclusive: 15.1 µM [activator, partial curve, poor fit]"
same,Potency,[6],"inconclusive: 601 nM [cytotoxic, partial curve, poor fit]"
same,Potency,[7],"inconclusive: 23.7 µM [inhibitor, partial curve] and inconclusive: 119 nM [inhibitor, single point]"
